# Experimental data reported in paper PMC12820563.
# Some of the results follow. The list includes weakly bound sequences.
# Molecular target: T1, MBP-FoxP3dN (UniProt Q99JB6)
# T1 sequence: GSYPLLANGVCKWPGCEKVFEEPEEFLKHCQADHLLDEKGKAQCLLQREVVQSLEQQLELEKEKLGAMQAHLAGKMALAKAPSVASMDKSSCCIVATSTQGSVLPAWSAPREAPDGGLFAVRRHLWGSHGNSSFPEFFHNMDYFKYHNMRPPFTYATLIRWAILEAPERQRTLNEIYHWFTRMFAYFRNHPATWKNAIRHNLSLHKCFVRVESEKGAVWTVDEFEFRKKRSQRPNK
# Experiment: PD-seq (MBP pull-down with sequencing)
# Conditions: 20 mM Tris-HCl pH 7.5, 100 mM NaCl, 1.5 mM MgCl2, 0.4 uM protein, 0.1 uM dsDNA library, 30 min, room temperature, amylose pull-down; high values mean tight binding; double strand, one strand shown
row,Sequence,binding signal (RPM ratio (pull-down/input))
1,GATGATTGTTCTCCCAGCTGATGAATTAGGCAGGTCGAGTAAACAAATTTTCCTAATCTTTCTGTTCAAGCGCCATCTAC,0.591
2,GATGATTGTTCTCCCAGCTGATGAATTATCGACGTCGAGTAAACAAATTTTCCTAATCTTTCTGTTCAAGCGCCATCTAC,0.345
3,GATGATTGTTCTCCCAGCTGATGAATTATCTTAATCGAGTAAACAAATTTTCCTAATCTTTCTGTTCAAGCGCCATCTAC,0.251
4,GATGATTGTTCTCCCAGCTGATGAATTCTTGCGGTCGAGTAAACAAATTTTCCTAATCTTTCTGTTCAAGCGCCATCTAC,0.31
5,GATGATTGTTCTCCCAGCTGATGAATTCAGCAGATCGAGTAAACAAATTTTCCTAATCTTTCTGTTCAAGCGCCATCTAC,0.278
6,GATGATTGTTCTCCCAGCTGATGAATTCACACACTCGAGTAAACAAATTTTCCTAATCTTTCTGTTCAAGCGCCATCTAC,0.431
7,GATGATTGTTCTCCCAGCTGATGAATTGGTCAAGTCGAGTAAACAAATTTTCCTAATCTTTCTGTTCAAGCGCCATCTAC,0.217
8,GATGATTGTTCTCCCAGCTGATGAATTCAAATTCTCGAGTAAACAAATTTTCCTAATCTTTCTGTTCAAGCGCCATCTAC,0.426
9,GATGATTGTTCTCCCAGCTGATGAATTAATAAGTTCGAGTAAACAAATTTTCCTAATCTTTCTGTTCAAGCGCCATCTAC,0.346
10,GATGATTGTTCTCCCAGCTGATGAATTATATAGGTCGAGTAAACAAATTTTCCTAATCTTTCTGTTCAAGCGCCATCTAC,0.454
11,GATGATTGTTCTCCCAGCTGATGAATTACTCGCCTCGAGTAAACAAATTTTCCTAATCTTTCTGTTCAAGCGCCATCTAC,0.527
12,GATGATTGTTCTCCCAGCTGATGAATTCTTGCCGTCGAGTAAACAAATTTTCCTAATCTTTCTGTTCAAGCGCCATCTAC,0.517
13,GATGATTGTTCTCCCAGCTGATGAATTAAATAGTTCGAGTAAACAAATTTTCCTAATCTTTCTGTTCAAGCGCCATCTAC,0.661
14,GATGATTGTTCTCCCAGCTGATGAATTTGCCCTCTCGAGTAAACAAATTTTCCTAATCTTTCTGTTCAAGCGCCATCTAC,0.526
15,GATGATTGTTCTCCCAGCTGATGAATTAGGGTTTTCGAGTAAACAAATTTTCCTAATCTTTCTGTTCAAGCGCCATCTAC,0.758
16,GATGATTGTTCTCCCAGCTGATGAATTTCCCATGTCGAGTAAACAAATTTTCCTAATCTTTCTGTTCAAGCGCCATCTAC,0.287
17,GATGATTGTTCTCCCAGCTGATGAATTTCTATGGTCGAGTAAACAAATTTTCCTAATCTTTCTGTTCAAGCGCCATCTAC,0.282
18,GATGATTGTTCTCCCAGCTGATGAATTATAAATGTCGAGTAAACAAATTTTCCTAATCTTTCTGTTCAAGCGCCATCTAC,0.446
19,GATGATTGTTCTCCCAGCTGATGAATTTAGGATATCGAGTAAACAAATTTTCCTAATCTTTCTGTTCAAGCGCCATCTAC,0.501
20,GATGATTGTTCTCCCAGCTGATGAATTGCGTCAGTCGAGTAAACAAATTTTCCTAATCTTTCTGTTCAAGCGCCATCTAC,0.93
21,GATGATTGTTCTCCCAGCTGATGAATTGATTGCATCGAGTAAACAAATTTTCCTAATCTTTCTGTTCAAGCGCCATCTAC,1.87

row,Sequence,binding signal (RPM ratio (pull-down/input))
1,GATGATTGTTCTCCCAGCTGATGAATTCGGGCTGTCGAGTAAACAAATTTTCCTAATCTTTCTGTTCAAGCGCCATCTAC,0.3
2,GATGATTGTTCTCCCAGCTGATGAATTCGATCTGTCGAGTAAACAAATTTTCCTAATCTTTCTGTTCAAGCGCCATCTAC,0.275
3,GATGATTGTTCTCCCAGCTGATGAATTTGCAACTTCGAGTAAACAAATTTTCCTAATCTTTCTGTTCAAGCGCCATCTAC,4.24
4,GATGATTGTTCTCCCAGCTGATGAATTCACAACCTCGAGTAAACAAATTTTCCTAATCTTTCTGTTCAAGCGCCATCTAC,0.413
5,GATGATTGTTCTCCCAGCTGATGAATTGCTACCATCGAGTAAACAAATTTTCCTAATCTTTCTGTTCAAGCGCCATCTAC,0.894
6,GATGATTGTTCTCCCAGCTGATGAATTGTCTATGTCGAGTAAACAAATTTTCCTAATCTTTCTGTTCAAGCGCCATCTAC,0.881
7,GATGATTGTTCTCCCAGCTGATGAATTAATTAGGTCGAGTAAACAAATTTTCCTAATCTTTCTGTTCAAGCGCCATCTAC,0.654
8,GATGATTGTTCTCCCAGCTGATGAATTGTGCCACTCGAGTAAACAAATTTTCCTAATCTTTCTGTTCAAGCGCCATCTAC,6.84
9,GATGATTGTTCTCCCAGCTGATGAATTCCAAGCCTCGAGTAAACAAATTTTCCTAATCTTTCTGTTCAAGCGCCATCTAC,0.344
10,GATGATTGTTCTCCCAGCTGATGAATTTGGCGAATCGAGTAAACAAATTTTCCTAATCTTTCTGTTCAAGCGCCATCTAC,0.363
11,GATGATTGTTCTCCCAGCTGATGAATTGATAACTTCGAGTAAACAAATTTTCCTAATCTTTCTGTTCAAGCGCCATCTAC,0.437
12,GATGATTGTTCTCCCAGCTGATGAATTAGCAAGATCGAGTAAACAAATTTTCCTAATCTTTCTGTTCAAGCGCCATCTAC,0.304
13,GATGATTGTTCTCCCAGCTGATGAATTCTACTCATCGAGTAAACAAATTTTCCTAATCTTTCTGTTCAAGCGCCATCTAC,0.414
14,GATGATTGTTCTCCCAGCTGATGAATTTCGATTGTCGAGTAAACAAATTTTCCTAATCTTTCTGTTCAAGCGCCATCTAC,2.91
15,GATGATTGTTCTCCCAGCTGATGAATTACGGCTGTCGAGTAAACAAATTTTCCTAATCTTTCTGTTCAAGCGCCATCTAC,0.43
16,GATGATTGTTCTCCCAGCTGATGAATTAAGGGGCTCGAGTAAACAAATTTTCCTAATCTTTCTGTTCAAGCGCCATCTAC,0.355
17,GATGATTGTTCTCCCAGCTGATGAATTCGCGACCTCGAGTAAACAAATTTTCCTAATCTTTCTGTTCAAGCGCCATCTAC,0.458
18,GATGATTGTTCTCCCAGCTGATGAATTATCGATCTCGAGTAAACAAATTTTCCTAATCTTTCTGTTCAAGCGCCATCTAC,0.385
19,GATGATTGTTCTCCCAGCTGATGAATTGGTTATGTCGAGTAAACAAATTTTCCTAATCTTTCTGTTCAAGCGCCATCTAC,2.38
20,GATGATTGTTCTCCCAGCTGATGAATTGGACGCTTCGAGTAAACAAATTTTCCTAATCTTTCTGTTCAAGCGCCATCTAC,0.494
21,GATGATTGTTCTCCCAGCTGATGAATTCCTCCATTCGAGTAAACAAATTTTCCTAATCTTTCTGTTCAAGCGCCATCTAC,0.272

row,Sequence,binding signal (RPM ratio (pull-down/input))
1,GATGATTGTTCTCCCAGCTGATGAATTCAGGCAATCGAGTAAACAAATTTTCCTAATCTTTCTGTTCAAGCGCCATCTAC,1.5
2,GATGATTGTTCTCCCAGCTGATGAATTGCAAGCGTCGAGTAAACAAATTTTCCTAATCTTTCTGTTCAAGCGCCATCTAC,0.974
3,GATGATTGTTCTCCCAGCTGATGAATTGCACCCGTCGAGTAAACAAATTTTCCTAATCTTTCTGTTCAAGCGCCATCTAC,0.736
4,GATGATTGTTCTCCCAGCTGATGAATTGTCAACCTCGAGTAAACAAATTTTCCTAATCTTTCTGTTCAAGCGCCATCTAC,0.625
5,GATGATTGTTCTCCCAGCTGATGAATTAATACGTTCGAGTAAACAAATTTTCCTAATCTTTCTGTTCAAGCGCCATCTAC,0.606
6,GATGATTGTTCTCCCAGCTGATGAATTGTTTCTGTCGAGTAAACAAATTTTCCTAATCTTTCTGTTCAAGCGCCATCTAC,1
7,GATGATTGTTCTCCCAGCTGATGAATTTGGGATATCGAGTAAACAAATTTTCCTAATCTTTCTGTTCAAGCGCCATCTAC,0.503
8,GATGATTGTTCTCCCAGCTGATGAATTTCCGACGTCGAGTAAACAAATTTTCCTAATCTTTCTGTTCAAGCGCCATCTAC,0.265
9,GATGATTGTTCTCCCAGCTGATGAATTATCTAGGTCGAGTAAACAAATTTTCCTAATCTTTCTGTTCAAGCGCCATCTAC,0.191
10,GATGATTGTTCTCCCAGCTGATGAATTGAGTAGGTCGAGTAAACAAATTTTCCTAATCTTTCTGTTCAAGCGCCATCTAC,0.379
11,GATGATTGTTCTCCCAGCTGATGAATTCGCATAGTCGAGTAAACAAATTTTCCTAATCTTTCTGTTCAAGCGCCATCTAC,0.664
12,GATGATTGTTCTCCCAGCTGATGAATTTGTCGACTCGAGTAAACAAATTTTCCTAATCTTTCTGTTCAAGCGCCATCTAC,1.81
13,GATGATTGTTCTCCCAGCTGATGAATTTGTATTCTCGAGTAAACAAATTTTCCTAATCTTTCTGTTCAAGCGCCATCTAC,5.9
14,GATGATTGTTCTCCCAGCTGATGAATTGGTCCTGTCGAGTAAACAAATTTTCCTAATCTTTCTGTTCAAGCGCCATCTAC,0.354
15,GATGATTGTTCTCCCAGCTGATGAATTTGATCTGTCGAGTAAACAAATTTTCCTAATCTTTCTGTTCAAGCGCCATCTAC,0.416
16,GATGATTGTTCTCCCAGCTGATGAATTCCCTGTATCGAGTAAACAAATTTTCCTAATCTTTCTGTTCAAGCGCCATCTAC,0.404
17,GATGATTGTTCTCCCAGCTGATGAATTACCGGCTTCGAGTAAACAAATTTTCCTAATCTTTCTGTTCAAGCGCCATCTAC,0.307
18,GATGATTGTTCTCCCAGCTGATGAATTGCCTTTGTCGAGTAAACAAATTTTCCTAATCTTTCTGTTCAAGCGCCATCTAC,0.946
19,GATGATTGTTCTCCCAGCTGATGAATTACTCTTCTCGAGTAAACAAATTTTCCTAATCTTTCTGTTCAAGCGCCATCTAC,0.331
20,GATGATTGTTCTCCCAGCTGATGAATTCCCCCTGTCGAGTAAACAAATTTTCCTAATCTTTCTGTTCAAGCGCCATCTAC,0.198
21,GATGATTGTTCTCCCAGCTGATGAATTCAATGGGTCGAGTAAACAAATTTTCCTAATCTTTCTGTTCAAGCGCCATCTAC,0.623
